# Among all 310,000 compounds or so, about 2,200 (0.71%) showed an effect of 50% or more. Effects have a minus sign here. Some of the results follow.
# Molecular target: human ether-à-go-go-related gene (hERG) potassium channel (human, UniProt Q12809)
# Assay: primary screen, population patch clamp on CHO cells stably expressing hERG
# human ether-à-go-go-related gene (hERG) potassium channel, sequence (Q12809 whole entry, looked up): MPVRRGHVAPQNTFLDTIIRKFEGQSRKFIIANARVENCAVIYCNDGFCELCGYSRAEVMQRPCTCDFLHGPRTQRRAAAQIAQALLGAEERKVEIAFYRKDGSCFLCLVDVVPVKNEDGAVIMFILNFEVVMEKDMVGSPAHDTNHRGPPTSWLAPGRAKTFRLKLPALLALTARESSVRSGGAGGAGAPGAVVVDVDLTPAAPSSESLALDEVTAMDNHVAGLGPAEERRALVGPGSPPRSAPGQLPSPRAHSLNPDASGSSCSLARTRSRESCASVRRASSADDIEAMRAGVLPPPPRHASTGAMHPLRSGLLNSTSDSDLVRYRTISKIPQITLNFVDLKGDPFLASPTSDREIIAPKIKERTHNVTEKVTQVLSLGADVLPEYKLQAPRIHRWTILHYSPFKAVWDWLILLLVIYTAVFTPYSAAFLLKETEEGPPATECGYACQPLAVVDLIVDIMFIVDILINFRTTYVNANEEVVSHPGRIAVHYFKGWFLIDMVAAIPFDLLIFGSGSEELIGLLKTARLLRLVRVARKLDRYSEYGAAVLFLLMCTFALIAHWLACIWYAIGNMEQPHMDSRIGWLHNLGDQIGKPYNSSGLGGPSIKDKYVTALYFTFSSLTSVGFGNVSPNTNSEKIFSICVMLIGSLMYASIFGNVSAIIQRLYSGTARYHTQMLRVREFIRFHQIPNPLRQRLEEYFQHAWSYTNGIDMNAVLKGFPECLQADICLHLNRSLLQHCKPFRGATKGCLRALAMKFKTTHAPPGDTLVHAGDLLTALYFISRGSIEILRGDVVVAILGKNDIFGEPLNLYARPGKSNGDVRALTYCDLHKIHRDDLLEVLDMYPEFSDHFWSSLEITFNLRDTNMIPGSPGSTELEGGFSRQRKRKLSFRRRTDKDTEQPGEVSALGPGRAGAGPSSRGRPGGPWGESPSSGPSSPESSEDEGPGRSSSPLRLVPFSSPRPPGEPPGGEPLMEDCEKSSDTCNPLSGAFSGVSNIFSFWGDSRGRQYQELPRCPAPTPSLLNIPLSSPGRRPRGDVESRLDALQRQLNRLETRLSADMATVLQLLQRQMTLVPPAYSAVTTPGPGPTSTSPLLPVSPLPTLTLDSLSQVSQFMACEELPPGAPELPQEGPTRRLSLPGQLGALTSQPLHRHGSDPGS
row,Structure (SMILES),"hERG current change (%, negative = inhibition) at 1uM"
1,COc1ccc(NC(=O)CSc2n[nH]c(-c3ccccc3)n2)cc1S(N)(=O)=O,1.42%
2,Cc1nc(SCC(=O)NCc2ccco2)c2oc3ccccc3c2n1,3.07%
3,CC(C)C(NC(=O)OCc1ccccc1)C(=O)OCC(=O)N1CCCCC1 (centres unmarked),1.56%
4,CC1CCN(C(=O)c2ccc(CNc3c(N4CCCC4)c(=O)c3=O)cc2)CC1,2.56%
5,C/C(Cc1ccccc1)=N\NC(=O)CNC(=O)c1ccccc1,10.9%
6,CCOc1ccccc1NC(=O)C1CCC(CNc2c(N3CCCCC3)c(=O)c2=O)CC1 (centres unmarked),15.1%
7,CCOC(=O)C1(Cc2cccc(OC)c2)CCN(Cc2cccc3cnccc23)CC1,5.23%
8,COC(=O)C1=C(c2ccc(OC(F)(F)F)cc2)C[C@@H]2CC[C@H]1N2C(=O)NC1CC1,7.64%
9,CCc1nnc2c(NCCc3ccccc3)nc3ccccc3n12,8.92%
10,CC12CCC(C/C1=N\N=C1\NC(=O)/C(=C\c3ccc(Cl)cc3)S1)C2(C)C (centres unmarked),14.8%
11,Cl.O=C(O)C1=CCNCC1,17.1%
12,CCOC(=O)NC(=O)CSc1nnnn1-c1ccc(Cl)cc1,-10.5%
13,Cc1ncc(CN2CCN(C(C)C)C(CCO)C2)s1 (centres unmarked),11.9%
14,O=C(C1=NN[C@@H]2C(=O)N(c3ccccc3C(F)(F)F)C(=O)[C@H]12)c1ccc2ccccc2n1,6.25%
15,COc1ccccc1NC(=O)c1cc2c(=O)n(C)c3ccccc3c2n1C,9.36%
16,CCOc1ccc(S(=O)(=O)N2CCC(C(=O)NC3CCCCC3)CC2)cc1,6.05%
17,COc1ccc(CC(=O)Nc2ccc(OC)nc2)cc1,9.86%
18,CCc1c(C)c(C#N)c2nc3ccccc3n2c1N1CCN(c2cc(C)ccn2)CC1,16.5%
19,O=C1NC(=S)NC(=O)C12C(c1ccc(F)cc1)NC(=S)NC2c1ccc(F)cc1 (centres unmarked),3.52%
20,O=C(CC12CC3CC(CC(C3)C1)C2)NC(=S)NCc1ccccc1,-0.571%
21,CCc1ccc(-c2cc3c(=O)n(CC(=O)NCCCN4CCN(CC)CC4)nc(C)n3n2)cc1,2.97%
22,Cc1ccc(Cl)c(OCC(=O)Nc2cc(S(=O)(=O)N3CCOCC3)ccc2N2CCCC2)c1,3.82%

row,Structure (SMILES),"hERG current change (%, negative = inhibition) at 1uM"
1,O=C(Nc1c2c(nn1-c1ccc(F)cc1)CS(=O)C2)c1ccco1 (centres unmarked),-7.47%
2,CC(C)N1CCN(Cc2ccc(OC3CCCC3)cc2)CC1CCO (centres unmarked),2.54%
3,Cc1cc(OC(=O)c2cccc(Cl)c2)c([N+](=O)[O-])c(=O)[nH]1,14.2%
4,Cc1cc(NC(=O)CCC(=O)N(c2ccccc2)C(C(=O)NC2CCCC2)c2ccc(F)cc2)no1 (centres unmarked),19.5%
5,CC(C)OC(=O)CSc1nnc(-c2cccnc2)n1N,2.3%
6,COc1ccc(-n2c(C)cc(C(=O)COC(=O)Cc3n[nH]c(=O)c4ccccc34)c2C)cc1,10.3%
7,O=C1CN(C(=O)COc2c(F)c(F)cc(F)c2F)c2ccccc2N1,7%
8,CC(C)(CC(=O)O)CC(=O)N1CCCN(c2nc3ccc(Cl)cc3s2)CC1,10.5%
9,COc1cc(NC(=S)N2CCOCC2)c(OC)cc1Cl,12.6%
10,CCNC(=S)N/N=C/c1sccc1C,9.94%
11,COCCN(CCOC)C(=O)CSc1ccc(S(=O)(=O)N2CCN(C)CC2)cn1,11.9%
12,CCOC(=O)/C(C#N)=C\C1=C(N2CCCC2)CC(C)(C)OC1,7.44%
13,O=C(NCCc1c[nH]c2ccccc12)/C(=C\c1cccnc1)NC(=O)c1cccs1,9.4%
14,CN1CCC(N(C)c2nc(-c3ccccc3)nc3ccccc23)CC1,-49.4%
15,CCN(CC(=O)Nc1ccccc1C(F)(F)F)C(=O)c1cc(-c2ccccc2)nn1-c1ccccc1,11.7%
16,CCN(CC)CCNC(=O)c1ccc(NC(=O)Cc2cccc3ccccc23)cc1,4.37%
17,CN(C(=O)CCc1nnc(-c2ccc(-c3ccccc3)cc2)o1)C1CCOCC1,2.58%
18,CCOc1ccc(NC(=O)CN(C)S(=O)(=O)c2cnc[nH]2)cc1,19.6%
19,O=C(NCC(=O)N(c1ccccc1)C(C(=O)NC1CCCC1)c1ccncc1)c1ccco1 (centres unmarked),-3.52%
20,CCOC(=O)c1nn(-c2ccc(OCC)cc2)c2nc(-c3cccc(OC)c3)c(C#N)c(=O)n12,10.8%
21,Cl.c1coc(C2=NCCc3ccccc32)c1,7.61%
22,Cc1ccc2c(c1)N(C(=O)CCC(=O)N1CCc3ccccc3C1)CCO2,7.35%
